Data reported in article PMC10726135.
The other results are listed elsewhere or left out. At the low end of the ranking, values are background and their order means little. Measured with an extract: partners may take part in the binding.

Target: T1, HNF4alpha8 (COS-7 nuclear extract) (UniProt P41235-5)
T1 sequence: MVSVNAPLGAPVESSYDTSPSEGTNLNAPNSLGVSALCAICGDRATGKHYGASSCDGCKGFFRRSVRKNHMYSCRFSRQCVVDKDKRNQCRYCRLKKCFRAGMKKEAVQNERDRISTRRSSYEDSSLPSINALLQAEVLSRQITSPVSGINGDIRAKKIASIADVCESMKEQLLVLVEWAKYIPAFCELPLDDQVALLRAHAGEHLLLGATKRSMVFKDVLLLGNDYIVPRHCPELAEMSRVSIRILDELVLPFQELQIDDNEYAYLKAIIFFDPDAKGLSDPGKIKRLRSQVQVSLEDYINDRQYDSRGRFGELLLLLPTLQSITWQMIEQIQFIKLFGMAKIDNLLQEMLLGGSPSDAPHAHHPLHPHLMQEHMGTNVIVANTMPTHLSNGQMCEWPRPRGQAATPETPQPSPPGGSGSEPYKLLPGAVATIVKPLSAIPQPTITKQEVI
Assay: protein-binding microarray
Conditions: COS-7 nuclear extract on double-stranded Agilent 4x180k PBM; binding buffer, salt, pH and temperature not given; high values mean tight binding; double strand, one strand shown; sequences stand for … in …GCCTAGGGAGATTAGAGTATCGGTCGA

**Q.** How did the binding signal (log2 normalized intensity) turn out when GCACAGCCAGAACTGAGCCCTGGTTTATCT was run?
**A.** -1.19

**Q.** How did the binding signal (log2 normalized intensity) turn out when CAGGTTCAAATCTAAACCTAGCAGCCTGCC was run?
**A.** -1.28

**Q.** CAGCAGAGGGAGCCGCTGTGTGGGAAGAGG was tested. Which binding signal (log2 normalized intensity) did it give?
**A.** -1.17

**Q.** How did the binding signal (log2 normalized intensity) turn out when TGGTAAAGTCAATAATCTAGAAACCAGTGA was run?
**A.** -1.06

**Q.** With GAGCTCAGTCACAGCAGTGGACTTTGACCT as the sequence, how does the binding signal (log2 normalized intensity) read?
**A.** 11.7

**Q.** How did the binding signal (log2 normalized intensity) turn out when GCAACAGAGGAGCATGGACTTCTGAGCTTG was run?
**A.** 1.07

**Q.** ATACAGAATCAATGCCTGATTCCAAAGTCC was tested. Which binding signal (log2 normalized intensity) did it give?
**A.** 6.36

**Q.** For GTTTCCTTTGAACTCTGCATCCAGGCATCC, which binding signal (log2 normalized intensity) is on record?
**A.** 1.34

**Q.** For GCTAGACTTGGACCAGCTTTTGGAAGGACT, which binding signal (log2 normalized intensity) is on record?
**A.** 0.0118

**Q.** Which binding signal (log2 normalized intensity) does the source give for CAAGAAAAGGTTCCTATGTAAACACAAGAT here?
**A.** -1.35

**Q.** With GTTTTCTGACGCAACAGAAAACTCAACTTC as the sequence, how does the binding signal (log2 normalized intensity) read?
**A.** -0.978

**Q.** AGAGTCCAAGATACCACTGATAAGGTTCCA was tested. Which binding signal (log2 normalized intensity) did it give?
**A.** 0.211

**Q.** How did the binding signal (log2 normalized intensity) turn out when CTTCGCTCTCTTCTGGTGATCAAACAAAAG was run?
**A.** -0.67

**Q.** Which binding signal (log2 normalized intensity) does the source give for AAACAGAGGACAGTTGTGTTTGTTGACCAC here?
**A.** 1.77

**Q.** With GGGTGAAAGGGACTCATCTCCAAACGAGAC as the sequence, how does the binding signal (log2 normalized intensity) read?
**A.** -1.21

**Q.** How did the binding signal (log2 normalized intensity) turn out when CCTTCTGTTAGAATGTATTGAGAAGAAACC was run?
**A.** 0.897

**Q.** How did the binding signal (log2 normalized intensity) turn out when GCAGCTCTTTACAAAGCCCATGCTGGACCC was run?
**A.** 4.69

**Q.** Which binding signal (log2 normalized intensity) does the source give for CAAAATATCTCACTCCCACACTGGTAACCT here?
**A.** 0.32

**Q.** CTTTGCTTTGAGAAAGCAAAGTCCCTGGGG was tested. Which binding signal (log2 normalized intensity) did it give?
**A.** 1.52

**Q.** How did the binding signal (log2 normalized intensity) turn out when TCTCATGGCTCATTTTGGGCATCTGCAGGG was run?
**A.** 1.23

**Q.** How did the binding signal (log2 normalized intensity) turn out when AGTGTAAGATAAAAATCAGAGATCAAGATA was run?
**A.** -1.42

**Q.** How did the binding signal (log2 normalized intensity) turn out when CTTTGACCCTGTTTTGTAAACTCCCTTTGA was run?
**A.** 2.04

**Q.** With ACACAGGACTTGATCCAGGGCAAAGGTCAT as the sequence, how does the binding signal (log2 normalized intensity) read?
**A.** 7.91

**Q.** AGATAGCATTCCAAGAGAGCAAAGTGCTTT was tested. Which binding signal (log2 normalized intensity) did it give?
**A.** 1.21

**Q.** GCCAGAACTGAGCCCTGGTTTATCTGTTGT was tested. Which binding signal (log2 normalized intensity) did it give?
**A.** 0.861

**Q.** For TTACAATGGAAAGATTAGGTCAAAGGGCGT, which binding signal (log2 normalized intensity) is on record?
**A.** 6.14

**Q.** With CCTGGGCATGTCTGCTCCCTGAGTTTCTGC as the sequence, how does the binding signal (log2 normalized intensity) read?
**A.** 1.07

**Q.** How did the binding signal (log2 normalized intensity) turn out when ACCAAAGCAGCTAGCAAATACAAGGACACT was run?
**A.** -1.28

**Q.** How did the binding signal (log2 normalized intensity) turn out when GGCAGAGCATAGAAGTAAGAAATCAGGAGC was run?
**A.** -1.35

**Q.** How did the binding signal (log2 normalized intensity) turn out when GGAGGTAGGGCAAGAGGACAAGGTTCAAAA was run?
**A.** 3.23

**Q.** With TGCCCTGAGCCGCCAGGCGGGTTCTGCCAT as the sequence, how does the binding signal (log2 normalized intensity) read?
**A.** -1.38

**Q.** Which binding signal (log2 normalized intensity) does the source give for GGTTGCAAAAACAATCAGGGGTTAGGGTGA here?
**A.** -1.08

**Q.** For GGTCCTAAGACTAACCTTTGACCATCCACG, which binding signal (log2 normalized intensity) is on record?
**A.** 6.44

**Q.** With AGATCTGGATATGCCTGGGGTTCCAGTTAC as the sequence, how does the binding signal (log2 normalized intensity) read?
**A.** 0.546

**Q.** For AAAATAGGGATTAAGCAGATGTTTCTGCAA, which binding signal (log2 normalized intensity) is on record?
**A.** -0.869

**Q.** GAAGCAATCAAGCAATCATATATGCATTTG was tested. Which binding signal (log2 normalized intensity) did it give?
**A.** -0.715

**Q.** For TTTAAGGATCCAGACGGATTCCACGGGGGT, which binding signal (log2 normalized intensity) is on record?
**A.** -0.402

**Q.** With AAACCTCCCCCAAACCAAAGAGAAATGGTG as the sequence, how does the binding signal (log2 normalized intensity) read?
**A.** 3.41

**Q.** Which binding signal (log2 normalized intensity) does the source give for GAAAGTCATGCTGAAGTACAGATTCCTGTA here?
**A.** 0.545

**Q.** With CAAAGGTCATGGCAACAGTTTTCTGGGATG as the sequence, how does the binding signal (log2 normalized intensity) read?
**A.** 3.46

**Q.** With GTCTTCATGGGCAAATAAAGCTAACCAGCT as the sequence, how does the binding signal (log2 normalized intensity) read?
**A.** -1.16

**Q.** How did the binding signal (log2 normalized intensity) turn out when GAGCAGGGATTGGGGATGCTCAAAGTACAC was run?
**A.** 2.81

**Q.** How did the binding signal (log2 normalized intensity) turn out when TATCAGAAGCTTACATATCACTTCCATCAG was run?
**A.** -1.33

**Q.** With GCCACCCTGAAGGCTGAGCCTAGGAGTTCA as the sequence, how does the binding signal (log2 normalized intensity) read?
**A.** -0.782

**Q.** How did the binding signal (log2 normalized intensity) turn out when AAAACTGGCCCTGATTTCAAAGTTCAGTTT was run?
**A.** 3.53

**Q.** AGCCGTTTCTGTCCAGAGTTTAAATGACCT was tested. Which binding signal (log2 normalized intensity) did it give?
**A.** 3.77

**Q.** TAAGGTCCTGTTTGTCAGCATCTTCACCGT was tested. Which binding signal (log2 normalized intensity) did it give?
**A.** 0.591

**Q.** How did the binding signal (log2 normalized intensity) turn out when CATGTGCAAAAGCACCCAAGGCTCTGCACA was run?
**A.** -1.29

**Q.** For TATCAGTAGTTGCAAATATTGCAGTGTAGA, which binding signal (log2 normalized intensity) is on record?
**A.** 0.767

**Q.** For CATAGGAACAAAGGTTGGTGTGAACCAGGG, which binding signal (log2 normalized intensity) is on record?
**A.** 1.73

**Q.** Which binding signal (log2 normalized intensity) does the source give for ATATTTTCTTTGTGCTATTTTTGGCTTGGT here?
**A.** 1.96

**Q.** How did the binding signal (log2 normalized intensity) turn out when GCCTTCGCACCTGCCTGTCTCACCTCGCTA was run?
**A.** -1.3

**Q.** For ATCTGACCTTTGGTTAACTTCTTAACTTGG, which binding signal (log2 normalized intensity) is on record?
**A.** 3.5

**Q.** With CATAAAACCTAGACAGAAGCTTTCTGAGAA as the sequence, how does the binding signal (log2 normalized intensity) read?
**A.** -1.34

**Q.** How did the binding signal (log2 normalized intensity) turn out when AGTGAGACGTTCCAAACCGGTCTTTCCACT was run?
**A.** -1.16

**Q.** How did the binding signal (log2 normalized intensity) turn out when ACCCTTGAACCTTCTTCTTGCAGTCCACAT was run?
**A.** 2.12

**Q.** How did the binding signal (log2 normalized intensity) turn out when CAAAGGATACAGATAAATAAATCAAGATCA was run?
**A.** -1.27

**Q.** GGTGGTATGTGTGTGCTTTAACAAGGTGTG was tested. Which binding signal (log2 normalized intensity) did it give?
**A.** 1.77

**Q.** TTCCTGCAGGCCCATCTGGGACTTCAAAGC was tested. Which binding signal (log2 normalized intensity) did it give?
**A.** -1.1

**Q.** How did the binding signal (log2 normalized intensity) turn out when GTCCAAACCCCTATGTTTAATGTATAAACC was run?
**A.** 2.01

**Q.** For AGCCCAATAAAATCTGGCAGCTTAAAAATG, which binding signal (log2 normalized intensity) is on record?
**A.** -1.18

**Q.** With ATCTCCCAGGTCTCCTCCACAGAGCACAGG as the sequence, how does the binding signal (log2 normalized intensity) read?
**A.** -1.34

**Q.** For TTACTGGGGCCCATTGTATGAGGGTGAAGT, which binding signal (log2 normalized intensity) is on record?
**A.** 0.972

**Q.** How did the binding signal (log2 normalized intensity) turn out when ATTCCTTGGACTCTGCCACTGGTTTGCACA was run?
**A.** 1.82

**Q.** How did the binding signal (log2 normalized intensity) turn out when TTTGCCTCCCTGCATTCCATTTCTGCCCCT was run?
**A.** 4.17

**Q.** TCAAAGAACAAGTATCCTGGTAGTGCGACA was tested. Which binding signal (log2 normalized intensity) did it give?
**A.** -1.31

**Q.** With ATGGGGTGGGGCAGAAAGGGCATGGATTTA as the sequence, how does the binding signal (log2 normalized intensity) read?
**A.** -1.29

**Q.** How did the binding signal (log2 normalized intensity) turn out when CCAGATATAGGGGAGGTCCTAAAGAGGATA was run?
**A.** -1.31

**Q.** For CGCTCCCCGACCTCCTGCTGCAGCTCTGGG, which binding signal (log2 normalized intensity) is on record?
**A.** -0.577

**Q.** Which binding signal (log2 normalized intensity) does the source give for TCTGCTCCCCCTGCCCTTCGTCCTGAGCAG here?
**A.** 2.59

**Q.** For CACATGTACACAGGAATATCAACAGGAGCA, which binding signal (log2 normalized intensity) is on record?
**A.** -1.35

**Q.** TCTGTTTTAGTTGAGTGTGACAAGAAAGAC was tested. Which binding signal (log2 normalized intensity) did it give?
**A.** 0.382
